# Source: the supplement of paper PMC10037445
# Values joined by “and” are separate entries in the source; they are usually repeats but may differ in a detail not shown here. Equal entries are not always repeated. Whole data set: some 2,900 compounds, median “NF-kB SEAP reporter activity, fold change vs agonist alone” near 0.99, cut for the highest 2% near 2.6. This is one part of the list.
# Experiments:
# [1] = tested on: RAW-Dual; assay: NF-kB SEAP reporter activity, fold change vs agonist alone; cytotoxicity flag (confluency mask): not cytotoxic; higher = enhanced NF-kB activity
# Summary of the method: (§1)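 After 50 nL of library stock was delivered by pin tool to RAW-Dual macrophages (50,000 cells/well, DMEM, 384-well plates), a PRR agonist was added 1 h later and the plates were kept at 37 °C, 5% CO2. Twenty hours later, IRF was read from supernatant by QuantiLuc luminescence and NF-κB by QuantiBlue absorbance at 620 nm. Reporter activity is stated as fold change over agonist-alone wells. Wells with IncuCyte confluency under 70% of agonist controls in both mask sets were counted as cytotoxic.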
# [2] = tested on: RAW-Dual; assay: NF-kB SEAP reporter activity, fold change vs agonist alone; higher = enhanced NF-kB activity
# Summary of the method: as §1
# [3] = tested on: RAW-Dual; assay: NF-kB SEAP reporter activity, fold change vs agonist alone; cytotoxicity flag (confluency mask): cytotoxic (confluency <70% of control); higher = enhanced NF-kB activity
# Summary of the method: as §1
# [4] = agonist: ODN 1826 (TLR9) 0.5 ug/mL
# [5] = agonist: Pam2CSK4 (TLR2/6) 0.1 ug/mL
# [6] = agonist: Pam3CSK4 (TLR2/1) 0.1 ug/mL
# [7] = library stock concentration (final ~1000-fold dilution): 10 mM, cytotoxicity flag (confluency mask): not cytotoxic, agonist: Imiquimod (TLR7) […]
# [8] = library stock concentration (final ~1000-fold dilution): 10 mM, cytotoxicity flag (confluency mask): not cytotoxic, agonist: MPLA (TLR4) […]
smiles,measurement,setting,value
COC1=CC(=O)CC(C)C12Oc1c(Cl)c(OC)cc(OC)c1C2=O (stereo unspecified) (library stock concentration (final ~1000-fold dilution): 10 mM),NF-kB SEAP reporter activity,[1]; agonist: LPS (TLR4) 0.1 ug/mL,0.897
same,NF-kB SEAP reporter activity,[1]; [4],0.816
same,NF-kB SEAP reporter activity,[1]; [5],0.787
same,NF-kB SEAP reporter activity,[1]; [6],0.943
COC1=CC(=O)CC(C)C12Oc1c(Cl)c(OC)cc(OC)c1C2=O (stereo unspecified),NF-kB SEAP reporter activity,[2]; [7],0.909
same,NF-kB SEAP reporter activity,[2]; [8],0.842
COc1ccc(C=Cc2cc(OC)c(OC)c(OC)c2)cc1OP(=O)(O)O,NF-kB SEAP reporter activity,"[2]; library stock concentration (final ~1000-fold dilution): 10 mM water, cytotoxicity flag (confluency mask): cytotoxic (confluency <70% of control), agonist: Imiquimod (TLR7) […]",1.67
same,NF-kB SEAP reporter activity,"[2]; library stock concentration (final ~1000-fold dilution): 10 mM water, cytotoxicity flag (confluency mask): cytotoxic (confluency <70% of control), agonist: MPLA (TLR4) […]",2.09
COc1ccc(C=Cc2cc(OC)c(OC)c(OC)c2)cc1OP(=O)(O)O (library stock concentration (final ~1000-fold dilution): 10 mM water),NF-kB SEAP reporter activity,[3]; agonist: LPS (TLR4) 0.1 ug/mL,5.99
same,NF-kB SEAP reporter activity,[3]; [4],2.48
same,NF-kB SEAP reporter activity,[3]; [5],2.34
same,NF-kB SEAP reporter activity,[3]; [6],2.65
CC(=N)NCc1cccc(CN)c1.Cl.Cl,NF-kB SEAP reporter activity,[2]; [7],1.08
same,NF-kB SEAP reporter activity,[2]; [8],1.03
CC(=N)NCc1cccc(CN)c1.Cl.Cl (library stock concentration (final ~1000-fold dilution): 10 mM),NF-kB SEAP reporter activity,[1]; agonist: LPS (TLR4) 0.1 ug/mL,0.956
same,NF-kB SEAP reporter activity,[1]; [4],1.03
same,NF-kB SEAP reporter activity,[1]; [5],1.02
same,NF-kB SEAP reporter activity,[1]; [6],0.859
CCN1C(=O)CNc2ncc(-c3ccc(-c4nc[nH]n4)nc3C)nc21,NF-kB SEAP reporter activity,[2]; [7],0.935
same,NF-kB SEAP reporter activity,[2]; [8],1.57
CCN1C(=O)CNc2ncc(-c3ccc(-c4nc[nH]n4)nc3C)nc21 (library stock concentration (final ~1000-fold dilution): 10 mM),NF-kB SEAP reporter activity,[1]; agonist: LPS (TLR4) 0.1 ug/mL,1.88
same,NF-kB SEAP reporter activity,[1]; [4],0.928
same,NF-kB SEAP reporter activity,[1]; [5],0.753
same,NF-kB SEAP reporter activity,[1]; [6],0.649
COc1ccc(CNC(=O)CCl)cc1OC,NF-kB SEAP reporter activity,[2]; [7],1.02
same,NF-kB SEAP reporter activity,[2]; [8],0.962
COc1ccc(CNC(=O)CCl)cc1OC (library stock concentration (final ~1000-fold dilution): 10 mM),NF-kB SEAP reporter activity,[1]; agonist: LPS (TLR4) 0.1 ug/mL,0.67
same,NF-kB SEAP reporter activity,[1]; [4],0.674
same,NF-kB SEAP reporter activity,[1]; [5],0.728
same,NF-kB SEAP reporter activity,[1]; [6],0.679
C=CC1CC1(NC(=O)C1CC2CN1C(=O)C(C(C)(C)C)NC(=O)OC1CC1CCCCCc1nc3ccc(OC)cc3nc1O2)C(=O)NS(=O)(=O)C1CC1 (stereo unspecified),NF-kB SEAP reporter activity,[2]; [7],1.3
same,NF-kB SEAP reporter activity,[2]; [8],1.22
C=CC1CC1(NC(=O)C1CC2CN1C(=O)C(C(C)(C)C)NC(=O)OC1CC1CCCCCc1nc3ccc(OC)cc3nc1O2)C(=O)NS(=O)(=O)C1CC1 (stereo unspecified) (library stock concentration (final ~1000-fold dilution): 10 mM),NF-kB SEAP reporter activity,[1]; agonist: LPS (TLR4) 0.1 ug/mL,1.3
same,NF-kB SEAP reporter activity,[1]; [4],1.46
same,NF-kB SEAP reporter activity,[1]; [5],0.913
same,NF-kB SEAP reporter activity,[1]; [6],0.835
COc1cc2oc(=O)ccc2c(OC)c1CC(O)C(C)(C)O (stereo unspecified) (library stock concentration (final ~1000-fold dilution): 10 mM),NF-kB SEAP reporter activity,[1]; agonist: LPS (TLR4) 0.1 ug/mL,1.11
same,NF-kB SEAP reporter activity,[1]; [4],0.972
same,NF-kB SEAP reporter activity,[1]; [5],1.08
same,NF-kB SEAP reporter activity,[1]; [6],1.38
COc1cc2oc(=O)ccc2c(OC)c1CC(O)C(C)(C)O (stereo unspecified),NF-kB SEAP reporter activity,[2]; [7],0.936
same,NF-kB SEAP reporter activity,[2]; [8],0.984
COc1cc(/C=C/C(=O)O)ccc1O (library stock concentration (final ~1000-fold dilution): 10 mM),NF-kB SEAP reporter activity,[1]; agonist: LPS (TLR4) 0.1 ug/mL,1.16
same,NF-kB SEAP reporter activity,[1]; [4],1.12
same,NF-kB SEAP reporter activity,[1]; [5],1.17
same,NF-kB SEAP reporter activity,[1]; [6],1.04
COc1cc(/C=C/C(=O)O)ccc1O,NF-kB SEAP reporter activity,[2]; [7],0.903
same,NF-kB SEAP reporter activity,[2]; [8],1.09
O=C(NC1CCOCC1)c1ccc(-c2cc(-c3c[nH]nc3-c3ccccn3)ccn2)cc1 (library stock concentration (final ~1000-fold dilution): 10 mM),NF-kB SEAP reporter activity,[1]; agonist: LPS (TLR4) 0.1 ug/mL,1.67
same,NF-kB SEAP reporter activity,[1]; [4],1.25
same,NF-kB SEAP reporter activity,[1]; [5],0.958
same,NF-kB SEAP reporter activity,[1]; [6],1.14
O=C(NC1CCOCC1)c1ccc(-c2cc(-c3c[nH]nc3-c3ccccn3)ccn2)cc1,NF-kB SEAP reporter activity,[2]; [7],1.11
same,NF-kB SEAP reporter activity,[2]; [8],1.55
CC(C)C(C(=O)O)N1C(=O)/C(=C/c2ccc(Br)cc2)SC1=S (stereo unspecified) (library stock concentration (final ~1000-fold dilution): 10 mM),NF-kB SEAP reporter activity,[1]; agonist: LPS (TLR4) 0.1 ug/mL,1.12
same,NF-kB SEAP reporter activity,[1]; [4],0.953
same,NF-kB SEAP reporter activity,[1]; [5],0.947
same,NF-kB SEAP reporter activity,[1]; [6],1.05
CC(C)C(C(=O)O)N1C(=O)/C(=C/c2ccc(Br)cc2)SC1=S (stereo unspecified),NF-kB SEAP reporter activity,[2]; [7],0.992
same,NF-kB SEAP reporter activity,[2]; [8],1.01
NC(=O)c1ccc(-c2nc(-c3ccc4c(c3)OCO4)c(-c3ccccn3)[nH]2)cc1,NF-kB SEAP reporter activity,[2]; [7],1.13
same,NF-kB SEAP reporter activity,[2]; [8],1.4
NC(=O)c1ccc(-c2nc(-c3ccc4c(c3)OCO4)c(-c3ccccn3)[nH]2)cc1 (library stock concentration (final ~1000-fold dilution): 10 mM),NF-kB SEAP reporter activity,[1]; agonist: LPS (TLR4) 0.1 ug/mL,2.2
same,NF-kB SEAP reporter activity,[1]; [4],1.28
same,NF-kB SEAP reporter activity,[1]; [5],0.845
same,NF-kB SEAP reporter activity,[1]; [6],1.1
COCCCOc1cc(CC(CC(N)C(O)CC(C(=O)NCC(C)(C)C(N)=O)C(C)C)C(C)C)ccc1OC (stereo unspecified) (library stock concentration (final ~1000-fold dilution): 10 mM),NF-kB SEAP reporter activity,[1]; agonist: LPS (TLR4) 0.1 ug/mL,1.36 and 1.31
same,NF-kB SEAP reporter activity,[1]; [4],1.57 and 0.983
same,NF-kB SEAP reporter activity,[1]; [5],1.09 and 0.934
same,NF-kB SEAP reporter activity,[1]; [6],1.04 and 1.06
CN(C)C/C=C/C(=O)Nc1cc2c(Nc3ccc(F)c(Cl)c3)ncnc2cc1OC1CCOC1 (stereo unspecified),NF-kB SEAP reporter activity,"[2]; library stock concentration (final ~1000-fold dilution): 10 mM, cytotoxicity flag (confluency mask): cytotoxic (confluency <70% of control), agonist: Imiquimod (TLR7) […]",2.21
same,NF-kB SEAP reporter activity,"[2]; library stock concentration (final ~1000-fold dilution): 10 mM, cytotoxicity flag (confluency mask): cytotoxic (confluency <70% of control), agonist: MPLA (TLR4) […]",0.295
CN(C)C/C=C/C(=O)Nc1cc2c(Nc3ccc(F)c(Cl)c3)ncnc2cc1OC1CCOC1 (stereo unspecified) (library stock concentration (final ~1000-fold dilution): 10 mM),NF-kB SEAP reporter activity,[3]; agonist: LPS (TLR4) 0.1 ug/mL,0.252
same,NF-kB SEAP reporter activity,[3]; [4],0.201
same,NF-kB SEAP reporter activity,[3]; [5],0.295
same,NF-kB SEAP reporter activity,[3]; [6],0.227
